The structures appear in SMILES notation. Some of the results follow.

For this assay, the system named is T1, C. trachomatis L2/434/Bu expressing GFP (CTL2-GFP).
T1 construct: L2/434/Bu GFP intracellular growth in HeLa cells
Set-up: species or system HeLa; C. trachomatis total inclusion area by high-content imaging, normalised to DMSO. Conditions: total inclusion area; 28.5 h, 10 µM; inhibitor. The method in brief:
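Imaging read-out: GFP inclusions and Hoechst nuclei captured by high-content imaging after fixation. Inclusion area/number = chlamydial growth; nuclei count = host cell viability. MIC calculated per earlier method.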
`CC(C)(C)C(=O)N1CCC(n2nc(-c3cccs3)oc2=O)CC1` [CBK282423]: the “% of control remaining” value is given as 101.744. With `CC(C)NC(=O)N1CCC[C@@H](O)[C@H](NC(=O)c2ccc(OCc3ccccc3)cc2)C1` [CBK289063] the figure was 107.273. As for `COc1ccc(-c2ccccc2)cc1NS(=O)(=O)c1ccc2c(c1)CCC(=O)N2` [CBK286368], the “% of control remaining” value came to 108.051. The same measure for `C/C(=N/O)c1ccc(OCCCOc2ccc(/C(C)=N/O)cc2)cc1` [CBK262075]: 88.5286; for `Cc1csc(NC(=O)c2cccc(S(=O)(=O)NCC3CCCO3)c2)n1` (centres unmarked) [CBK305017]: 97.9698.

In the case of `COc1cc(NC(=O)N2CCCCC2CO)cc(OC)c1OC` (centres unmarked) [CBK155986], the “% of control remaining” value came out at 87.6834.

`CCN(CC)C(=O)c1sc2ccccc2c1Cl` [CBK067853]: the “% of control remaining” value came to 35.0872.

Regarding `CN(CC(=O)N1CCC(Cc2ccccc2)CC1)S(=O)(=O)c1ccc2ccccc2c1` [CBK266931], the “% of control remaining” value is given as 111.083. The same measure for `Cc1csc(NC(=O)CSc2nnc3[nH]c(=O)cc(C)n23)n1` [CBK294413]: 87.5341; for `O=C(Cc1c[nH]cn1)N1CCCC2(CCN(C(=O)c3cc(F)c(F)cc3F)C2)C1` (centres unmarked) [CBK137072]: 73.9339; for `O=C1NC(=O)C(CCCCN2CCC[C@@H]2CN2CCCC2)N1` (some centres unmarked) [CBK149110]: 96.6676. The same measure for `CC(C)C(=O)Nc1ccc2c(-c3ccc4c(c3)CCO4)ccnc2n1` [CBK073672]: 123.086; for `O=C(O)CCNC1CC(=O)N(Cc2ccccc2)C1=O` (centres unmarked) [CBK287246]: 85.0763; for `O=C(O)C1Cc2c([nH]c3ccccc23)C(c2cc(Br)ccc2O)N1` (centres unmarked) [CBK260946]: 102.346. The same measure for `O=C1COc2ccccc2C/C=C/CC2(CCN(C(=O)c3cnccn3)CC2)C(=O)NCCN1` [CBK291997]: 140.861. For `O=C(Cn1ccnc1)Nc1nc(-c2ccccc2F)cs1` [CBK281409], the “% of control remaining” value is 74.5556.

As to `Cc1ccc(C(=O)NC(C)c2nnc(SCC(=O)c3ccc(Br)cc3)n2C)cc1` (centres unmarked) [CBK266183], the “% of control remaining” value is given as 96.7666. Consider `CC(=O)Nc1ccc(NCc2cc(Cl)ccc2OCc2ccc(Cl)cc2Cl)cc1` [CBK078179], for which the “% of control remaining” value is 87.9391. With `CN1CCN(NC(=O)COc2ccc(Br)cc2Cl)CC1` [CBK268174] the figure was 92.589. With `COC(=O)/C=C/c1cn(C2OC(CO)C(O)C2O)c(=O)[nH]c1=O` (centres unmarked) [CBK201339] the figure was 105.759; with `COc1ccc2c(c1)C1(CC(=O)N(CCOc3ccccc3)C1=O)C(=O)N2C` (centres unmarked) [CBK075168], 91.9042. For the molecule `CN1C(C)(C)CC(NC(=O)c2[nH]cnc2C(=O)O)CC1(C)C` [CBK287102], the “% of control remaining” value turned out to be 84.7239.

For `CCOc1ccc2ccccc2c1CNCCSc1nnnn1C` [CBK270046C], the “% of control remaining” value came to 98.4843.

As for `O=C(c1cc(-c2ccncc2)nc2ccc(Cl)cc12)N1CCN(Cc2ccc3c(c2)OCO3)CC1` [CBK267765], the “% of control remaining” value is given as 108.628.

Consider `COc1ccc2c(c1)C1(CC(=O)N(Cc3ccccc3)C1=O)C(=O)N2CCn1cnc2c1c(=O)n(C)c(=O)n2C` (centres unmarked) [CBK075478], for which the “% of control remaining” value amounted to 91.4226. For `COc1ccc(-c2cc(C(=O)Nc3ccccn3)cnc2-c2ccccc2)cn1` [CBK037519], the “% of control remaining” value was determined as 112.06.

As to `FC(F)(F)c1nnc2ccc(N3CCN(Cc4ccsc4)CC3)nn12` [CBK305930], the “% of control remaining” value turned out to be 87.1649.

Consider `COCCNc1cccc(Cn2c(=O)n(C)c3c2c(=O)nc(OC)n3C)c1` [CBK022052], for which the “% of control remaining” value is 88.2804.

With `Cc1cc2ccccc2n2c(=O)n(CC(=O)N3CCCCC3C)nc12` (centres unmarked) [CBK283882], the “% of control remaining” value worked out at 88.7808. The same measure for `O=C(O)c1ccccc1S(=O)(=O)CC(=O)N1CCCCC1` [CBK287180]: 84.9958; for `Cc1ccc(C2CCCN2C(=O)Cn2cccc(C(=O)NCc3ccccc3)c2=O)cc1C` (centres unmarked) [CBK286074]: 103.671. The same measure for `CC(C)(C)CC(=O)O/N=C(\N)c1ccccn1` [CBK265779]: 91.288; for `c1ccc2c(CCN3CCC(Oc4nccnc4OC4CCCCC4)CC3)c[nH]c2c1` [CBK082877T]: 83.617. The same measure for `Cc1cc(CNC(=O)Cn2nc(C)c(C)c2C)on1` [CBK281487]: 90.7329; for `Cc1cnc(C)c(N2CCN(c3cc([C@H]4C[C@@H](N)C4)ncn3)CC2)n1` [CBK307118]: 82.695; for `CC(=O)N1CCC[C@H]2NC(=O)CNC(=O)C3(C/C=C/C[C@H]21)CCN(C(=O)C1CCC1)CC3` [CBK292177]: 78.3682. Take `OCCN1CSC(=S)N(CCc2ccc(Cl)cc2)C1` [CBK015713]: the “% of control remaining” value stood at 66.6686.

As for `Cn1c(SCc2ccc([N+](=O)[O-])cc2)nnc1-c1ccc(NC(=O)c2ccccc2Cl)cc1` [CBK265001], the “% of control remaining” value is 116.41.

Regarding `Fc1ccc(-c2cn3ccnc3c(Nc3cccc(OC(F)(F)C(F)F)c3)n2)cc1Cl` [CBK037265], the “% of control remaining” value came out at 101.282. With `COC(=O)c1ccc(Nc2cccc(-c3cccc(N)c3)n2)cc1OC` [CBK037619] the figure was 79.6655. With `O=C(O)c1cc(S(=O)(=O)NCc2ccccc2)ccc1Br` [CBK261768] the figure was 109.884; with `CCCc1[nH]nc(O)c1Cc1cccc(C)c1` [CBK075035], 88.3053; with `COc1ccc(OCCCn2ccn(C(=O)CCCOc3ccc(Cl)cc3)c2=O)cc1` [CBK106662], 127.102. With `CC1(C)CC(=O)C(=CNCC(N)=O)C(=O)C1` [CBK262520] the figure was 83.6779; with `CCCn1ccnc1CN1CCCC(CC2CC2)(C(=O)O)C1` (centres unmarked) [CBK307205], 44.9165.

Take `COc1ccc(C(=O)N2CCC3(CCN(Cc4cc(OC)c(OC)c(OC)c4)C3)C2)cc1OC` (centres unmarked) [CBK132149]: the “% of control remaining” value worked out at 106.945.

Consider `Cc1nc[nH]c1CN(CCCn1ccnc1)CC1CC=CCC1` (centres unmarked) [CBK283218], for which the “% of control remaining” value was found to be 89.2833. In the case of `O=C(COc1cccc2ccccc12)NNC(=O)Cc1ccc(Cl)cc1` [CBK262988], the “% of control remaining” value is listed as 83.1194.

Turning to `O=C(/C=C\c1ccc(Cl)cc1Cl)N1CCN(Cc2ccc3c(c2)OCO3)CC1` [CBK074371], the “% of control remaining” value was determined as 0.2437.

With `O=C(c1ccccc1)N1C[C@H](c2ccsc2)[C@H]2CN(Cc3ccsc3)CC[C@H]21` [CBK285604], the “% of control remaining” value came to 86.5399.

For the origin of these results see publication PMC12040169 (PLOS Biology, 2025).
